# PubChem BioAssay AID2147 (National Center for Advancing Translational Sciences (NCATS), 2009)
# Values joined by “and” are separate entries in the source; they are usually repeats but may differ in a detail not shown here. Equal values may be shown once. Among all 230,000 compounds or so, about 3,600 (1.6%) were called active. Inconclusive results, whose numbers are uncertain, are shown with a selection of clear calls. The call rests on the fitted dose curve; in most records, active means well fitted inhibition curve with a large enough effect (not every such curve was filed as active); inconclusive means small, poorly fitted or top-dose-only effect, or another doubt; inactive means no such curve, though single readings can be large or run the other way. A potency beside an inconclusive call is a rough fit, not a confirmed value.
# Biological target: Lysine-specific demethylase 4E (Homo sapiens) (UniProt B2RXH2)
# UniProt B2RXH2, sequence (B2RXH2 whole entry, looked up, the tested form may be a part): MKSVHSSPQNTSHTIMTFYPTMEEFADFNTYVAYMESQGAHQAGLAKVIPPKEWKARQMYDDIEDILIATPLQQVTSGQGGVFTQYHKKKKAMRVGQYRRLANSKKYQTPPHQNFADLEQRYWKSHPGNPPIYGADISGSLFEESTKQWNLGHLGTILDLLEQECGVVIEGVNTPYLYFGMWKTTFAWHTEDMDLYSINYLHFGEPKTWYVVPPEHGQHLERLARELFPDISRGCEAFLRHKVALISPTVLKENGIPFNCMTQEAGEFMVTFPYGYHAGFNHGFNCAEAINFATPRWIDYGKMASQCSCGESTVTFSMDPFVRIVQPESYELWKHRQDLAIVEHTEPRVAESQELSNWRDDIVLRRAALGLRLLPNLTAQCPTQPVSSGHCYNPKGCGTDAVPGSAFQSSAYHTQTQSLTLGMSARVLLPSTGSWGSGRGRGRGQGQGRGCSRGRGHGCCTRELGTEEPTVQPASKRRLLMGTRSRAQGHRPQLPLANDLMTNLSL
# Experiment: qHTS Assay for Inhibitors of Human Jumonji Domain Containing 2E (JMJD2E)
# Conditions: JMJD2E catalytic domain, FDH-coupled NADH fluorescence (FDH is formaldehyde dehydrogenase); series mostly up to 57.1 µM; activity change, negative = inhibition: at the top concentration
# Further: nearly all actives have a fitted effect of over 50% in size.
# Potency means the concentration at half of the fitted maximal effect; tags describe the fitted curve by direction and shape.
# 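Wherever activity change, negative = inhibition is given: 0% = wells with enzyme and -100% = buffer wells without enzyme.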
Structure (SMILES),"activity change, negative = inhibition",Potency
O=C(Nc1cc(Cl)ccn1)C1CCN(S(=O)(=O)c2cccs2)CC1,inactive: -0.747%,
COC(=O)C1=C(C(=O)OC)[C@@H]2N(C)c3ccc(OC)cc3[C@@]23C[C@@H](C(=O)OC)N(S(=O)(=O)c2cccs2)C3=N1,inactive: 1.88% [at 11.4 µM],
O=C(CCCCCn1c(=S)[nH]c2ccc(N3CCOCC3)cc2c1=O)NCc1ccc2c(c1)OCO2,,"inconclusive: 31.6 µM [inhibitor, partial curve]"
COc1ccc(-n2ccc(=O)c3c2CCCC3=O)cc1,,"inconclusive: 39.8 µM [inhibitor, single point]"
O=C(c1ccco1)N(c1ccccn1)c1ccccn1,inactive: 4.25%,
CCCc1nnc(N2C(=O)c3cccc4cccc(c34)C2=O)s1,,"inconclusive: 31.6 µM [inhibitor, partial curve]"
CC(C)N1C/C(=C/c2ccsc2)C(=O)/C(=C/c2ccsc2)C1,,"inconclusive: 39.8 µM [inhibitor, single point]"
Cc1ccc(Cl)cc1N1CCN(C(=O)CSc2nnc3n2C(C)(C)Cc2ccccc2-3)CC1,inactive: -1.48%,
CCOC(=O)c1cnc2sc3c(n2c1=O)CCCC3,,"inconclusive: 28.2 µM [inhibitor, partial curve]"
COc1ccc(Br)cc1/C=N/NC(=O)CN1CCN(Cc2ccccc2)CC1,inactive: -10.9%,
COc1ccc(-c2cc(-c3ccccc3)nc(SCC(=O)Nc3ncc(C)s3)c2C#N)cc1,,"inconclusive: 20 µM [inhibitor, partial curve]"
Cc1[nH]c2ccc(-c3n[nH]c(=S)n3C)cc2c1C,,"inconclusive: 25.1 µM [inhibitor, partial curve]"
O=C(CSC1=Nc2ccccc2C2=NC(CC(=O)NCc3ccco3)C(=O)N12)NCc1ccco1 (configuration not stated),,"inconclusive: 25.1 µM [inhibitor, partial curve]"
Cc1ccc(N=Cc2c(O)n(-c3nccs3)c(=O)c3ccccc23)cc1,,"inconclusive: 39.8 µM [inhibitor, single point]"
CCOc1cc(C(=O)OCC(=O)c2c[nH]c3ccccc23)ccc1OCC(=O)N1CCOCC1,,"inconclusive: 28.2 µM [inhibitor, single point]"
Cc1ccc(S(=O)(=O)N(CC(=O)N2CCOCC2)CC(=O)N2CCOCC2)cc1,inactive: -0.082%,
CCOC(=O)C1=C(CSc2nc(C)ccc2C#N)OC(N)=C(C#N)C1c1cccc(OC)c1OC (configuration not stated),,"inconclusive: 35.5 µM [inhibitor, single point]"
CC(C)CNC(=O)c1nc(-c2ccccc2)n(-c2ccccc2)n1,inactive: 6.91%,
CN(C)c1ccc(NC(=O)c2cccc(N3C(=O)C4C5C=CC(C5)C4C3=O)c2)cc1 (configuration not stated),,"inconclusive: 39.8 µM [inhibitor, single point]"
Cc1ccccc1C1CCCN(Cc2nc(CC3CC3)no2)C1 (configuration not stated),,"inconclusive: 12.6 µM [inhibitor, partial curve]"
Cc1cc(=O)n2[nH]c(N)c(N=Nc3ccccc3)c2n1,inactive: -1.67%,
CCn1cc(C(=O)NCc2ccccn2)c(=O)c2cc(F)c(N3CCN(C)CC3)cc21,,"inconclusive: 22.4 µM [inhibitor, partial curve]"
COc1ccc(C(CCNCc2ccc(OC(C)C)cc2)C(C)C)cc1 (configuration not stated),inactive: -5.08%,

Structure (SMILES),"activity change, negative = inhibition",Potency
COc1cccc(CNCCSc2nnnn2C)c1,inactive: 0.654%,
COc1ccc(-c2nn(C)c(=O)c3ccccc23)cc1NC(=O)Cn1nc(-c2ccccc2)c2ccccc2c1=O,,"inconclusive: 15.8 µM [inhibitor, partial curve]"
O=C(CSc1nnc(Cc2cccs2)n1-c1ccc(Cl)cc1)NCc1ccc2c(c1)OCO2,,"inconclusive: 39.8 µM [inhibitor, single point]"
CCn1c(SCC(=O)NCc2ccco2)nnc1-c1cccs1,,"inconclusive: 39.8 µM [inhibitor, single point]"
Cc1nn(C(=O)c2cc3sccc3[nH]2)c(C)c1C,,"inconclusive: 39.8 µM [inhibitor, single point]"
COc1ccccc1NC(=O)c1ccc(-n2cccn2)nc1,,"inconclusive: 3.55 µM [inhibitor, single point]"
Cc1[nH]nc(-c2ccc(O)c(C)c2O)c1Oc1ccccc1,,"inconclusive: 39.8 µM [inhibitor, single point]"
Cc1ccc(OCCOCCOc2ccc(Br)cc2/C=N\NC(=O)c2ccncc2)cc1,,"inconclusive: 20 µM [inhibitor, single point]"
CCN(CC)S(=O)(=O)c1ccc2c3c(cccc13)C(=O)S2,,"inconclusive: 28.2 µM [inhibitor, single point]"
COc1ccc(C2CC(c3cccs3)=NN2c2ccc(F)cc2)cc1OC (configuration not stated),,"inconclusive: 15.8 µM [inhibitor, partial curve]"
C/C(=N\NC(=O)CCCCCNC(=O)c1ccccc1)c1ccccc1O,,"inconclusive: 31.6 µM [inhibitor, single point]"
c1ccc(C(c2nnnn2C2CCCCC2)N2CCc3ccccc3C2)nc1 (configuration not stated),,"inconclusive: 25.1 µM [inhibitor, partial curve]"
C=CCOc1c(Br)cc(/C=N/Nc2ccc(C(=O)O)cc2)cc1OCC,,"inconclusive: 31.6 µM [inhibitor, partial curve]"
CCCOc1ccc(-c2cc(C(=O)NCC3CCCO3)c3ccccc3n2)cc1 (configuration not stated),,"inconclusive: 28.2 µM [inhibitor, partial curve]"
Clc1ccc(/C=C/c2nc3ccccc3[nH]2)cc1,,"inconclusive: 28.2 µM [inhibitor, partial curve]"
CC(=O)Oc1ccccc1C1=NN(C(C)=O)C(c2ccccc2)C1 (configuration not stated),,"inconclusive: 25.1 µM [inhibitor, single point]"
CC(/C=N/NC(=O)Cc1cccn1C)=C\c1ccco1,,"inconclusive: 25.1 µM [inhibitor, single point]"
Cc1ccc(CNCC(=O)Nc2ccc(N3CCOCC3)cc2)cc1,,"inconclusive: 28.2 µM [inhibitor, single point]"
COc1ccc2cc(CN(Cc3cccs3)Cc3nnnn3Cc3ccccc3)c(=O)[nH]c2c1,,"inconclusive: 39.8 µM [inhibitor, single point]"
COC(=O)c1ccc(/C=C/c2ccc3cccc(OC)c3n2)cc1,,"inconclusive: 31.6 µM [inhibitor, partial curve]"
S=C(NNc1ccc2ccccc2c1)NC1CCCCC1,,active: 11.2 µM
CCOC(=O)c1noc(C)c1C(=O)Nc1nc(C)cc(C)n1,inactive: -10.7%,
Cn1cccc1Cc1nnc(SCC(=O)Nc2ccc3c(c2)OCO3)n1CCc1ccccc1,inactive: -15.2%,

Structure (SMILES),"activity change, negative = inhibition",Potency
CC(C)N1CN(c2ccccc2)C(=S)N(c2ccccc2)C1,inactive: 1%,
COc1cccc(NC(=S)N(CCCN2CCOCC2)Cc2cn(C)c3ccccc23)c1,inactive: -6.47%,
c1ccc(-n2ncc3c(NCc4ccc5c(c4)OCO5)ncnc32)cc1,,"inconclusive: 39.8 µM [inhibitor, single point]"
CCOc1ccc(Nc2ncnc3ccc([N+](=O)[O-])cc23)cc1,inactive: -1.1%,
CCOC(=O)c1[nH]c2ccccc2c1NC(=O)CCN1CCN(C(=O)OCC)CC1,,"inconclusive: 39.8 µM [inhibitor, single point]"
NCCC[C@@H](CC(=O)N[C@@H]1CCCC[C@H]1C(=O)N[C@H](CC(=O)N[C@@H](CCC(=O)O)CC(=O)O)Cc1ccccc1)NC(=O)C[C@H](Cc1ccccc1)NC(=O)[C@@H]1CNCC[C@H]1N,inactive: -1.92%,
COc1ccc2c(OC)c3ccoc3nc2c1OC,,"inconclusive: 12.6 µM [inhibitor, partial curve] and inconclusive: 28.2 µM [inhibitor, partial curve] and inconclusive: 14.1 µM [inhibitor, partial curve]"
O=C1OCCC1Sc1nc2ccccc2s1 (configuration not stated),,"inconclusive: 39.8 µM [inhibitor, single point]"
Cc1ccccc1S(=O)(=O)c1c(C)cc(-c2ccccc2)[nH]c1=O,,"inconclusive: 31.6 µM [inhibitor, partial curve]"
COc1cc(Cl)c(C)cc1NC(=O)CSc1nnc(CCC(=O)O)c(=O)[nH]1,,"inconclusive: 2.24 µM [inhibitor, partial curve]"
C=CCN(c1ccccc1C(=O)O)S(=O)(=O)c1ccc(C)cc1,inactive: 4.24%,
CCOC(=O)N/N=C(C)/C=C/c1ccccc1,inactive: 7.35%,
Cc1coc2cc3oc(=O)cc(C)c3cc12,,"inconclusive: 25.1 µM [inhibitor, partial curve]"
CC1CCN(CCCOc2ccc(Cl)cc2Br)CC1,,"inconclusive: 25.1 µM [inhibitor, single point]"
Cc1ccc(-c2noc(CN3CCN(c4ccccc4F)CC3)n2)cc1,inactive: 5.78%,
O=C(CCc1nc2ccccc2[nH]c1=O)OCc1ccc(S(=O)(=O)N2CCOCC2)cc1,,"inconclusive: 35.5 µM [inhibitor, partial curve]"
Cc1ccccc1C(=O)NC1CCN(C(=O)Nc2ccccc2Cl)CC1,inactive: -10.2%,
Cc1c(C(=O)N2CCc3ccccc32)oc2c1C(=O)CC(C)(C)C2,,"inconclusive: 39.8 µM [inhibitor, single point]"
CCc1ccc(N(CC(=O)Nc2sc3c(c2C(=O)OC)CCCC3)S(C)(=O)=O)cc1,,"inconclusive: 25.1 µM [inhibitor, single point]"
COCCN(Cc1cc2ccccc2[nH]c1=O)C(=O)c1ccccc1OC,,"inconclusive: 25.1 µM [inhibitor, single point]"
Nc1ncnc(Nc2cccc(C(F)(F)F)c2)n1,,"inconclusive: 31.6 µM [inhibitor, single point]"
